# Assay results reported in publication PMC7819943, “Rice protein-binding microarrays: a tool to detect cis-acting elements near promoter regions in rice”.
# The other results are listed elsewhere or left out.
# Target: T1, OsWOX13 (Oryza sativa, UniProt Q5QMM3 1-267)
# T1 sequence: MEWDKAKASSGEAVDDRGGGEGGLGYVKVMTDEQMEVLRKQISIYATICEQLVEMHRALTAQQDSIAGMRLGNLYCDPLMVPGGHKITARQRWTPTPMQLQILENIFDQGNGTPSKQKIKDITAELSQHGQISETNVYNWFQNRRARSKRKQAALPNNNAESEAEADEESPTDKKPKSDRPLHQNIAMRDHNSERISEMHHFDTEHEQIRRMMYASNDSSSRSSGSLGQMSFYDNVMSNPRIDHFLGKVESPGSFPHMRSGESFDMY
# Experiment: protein-binding microarray (RPBM); PBS, 2% BSA, 51.3 ng/ul salmon testes DNA, 50 uM zinc acetate, 200 nM TF, 25 C, 1 h; high values mean tight binding
# Conditions: protein: recombinant; tags: N-terminal polyhistidine and DsRed monomer fusion (pET32a); label: CyDye5-dUTP incorporated in the synthesized complementary strand; 3' TTTTT single-stranded linker to array surface; dsDNA, one strand shown
# How it was run: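 Binding signal here means per-feature fluorescence intensity in arbitrary units. The values were read on an Axon 4000B scanner after a custom Agilent array, double-stranded by primer extension with Cy5-dUTP, was incubated with 200 nM protein at 25 °C for 1 h in PBS with 2% BSA, salmon testes DNA and 50 µM zinc acetate, then washed. The proteins were transcription factors with an N-terminal polyhistidine tag and DsRed, expressed in E. coli BL21-CodonPlus and purified on Ni–NTA.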
row,Sequence,binding signal
1,TGAAAATTGATGATGCGGATGCGAGGTGCACGAGGAGTGACGGAGTCACCTAGTGCAG,19400 fluorescence intensity (a.u.)
2,CCCTAAATTCATGAGATTGCAGCTGTCTGTAAGTTCTAATCGGAGTCACCTAGTGCAG,5540 fluorescence intensity (a.u.)
3,CGAATTAAACACAGCCATAATGAGTTTAAATGTTAGCACTCGGAGTCACCTAGTGCAG,3380 fluorescence intensity (a.u.)
4,AAATAAACAGTCCGTAAACCGTTTGGACCGTCCGATGAGCCGGAGTCACCTAGTGCAG,3680 fluorescence intensity (a.u.)
5,ATTGATCGATTGTATGTAGGTTCATATTGCTTAGATGGTGCGGAGTCACCTAGTGCAG,4300 fluorescence intensity (a.u.)
6,AAACCACCTAACAATTGATAGATGCTTAATTTAGCCAAACCGGAGTCACCTAGTGCAG,12900 fluorescence intensity (a.u.)
7,TAAAATTAAATTTACAAGGGTTAATTCGCGAGTAATAACGCGGAGTCACCTAGTGCAG,12300 fluorescence intensity (a.u.)
8,ATAAATTGGACATCCTGGACATGCTCTTTCTTCAGACATCCGGAGTCACCTAGTGCAG,24100 fluorescence intensity (a.u.)
9,GTGAAGAGCAAATCAATTGATATATGAATCAGCAGGAGGCCGGAGTCACCTAGTGCAG,8780 fluorescence intensity (a.u.)
10,TTGATGGAGTAAATTTCCCCTACTCTACGTGCGTACAAGTCGGAGTCACCTAGTGCAG,8740 fluorescence intensity (a.u.)
11,TTATTCTCTTGTGTGATTTGTGATTGATGATCTGTCAACACGGAGTCACCTAGTGCAG,37000 fluorescence intensity (a.u.)
12,AGTGACCTCAATTGATCATTCCCTCATCCTTTAGTCAAGCCGGAGTCACCTAGTGCAG,3990 fluorescence intensity (a.u.)
13,ACTAGGATGATGTGAATAAGTAATTGAGTAGGCTAAAGTTCGGAGTCACCTAGTGCAG,5220 fluorescence intensity (a.u.)
14,GAAAACGCCAAAATACAATAATTAGATTTTCCACAGACACCGGAGTCACCTAGTGCAG,3580 fluorescence intensity (a.u.)
15,TTCTGCAAATCCAATCAATCGCGGGTTAATATCCCAGCACCGGAGTCACCTAGTGCAG,17800 fluorescence intensity (a.u.)
16,TGCTAAATTGCCAGTAAAGTTTATTTTGGCTACAATCTGACGGAGTCACCTAGTGCAG,8930 fluorescence intensity (a.u.)
17,CAGATCAATTTATCGAGATTGATCAAAAGCAAGATGATGCCGGAGTCACCTAGTGCAG,35000 fluorescence intensity (a.u.)
18,TTTATACGAAAATCAATAATTATAGCAGATATCCACAAGGCGGAGTCACCTAGTGCAG,5700 fluorescence intensity (a.u.)
19,GCCAATCACTGTACTTCTATTACAATGCACATGCATGCGCCGGAGTCACCTAGTGCAG,10000 fluorescence intensity (a.u.)
20,TTTGCAATAATTAATACTAATTAATCATATGCGGTTTCTTCGGAGTCACCTAGTGCAG,31100 fluorescence intensity (a.u.)
21,AATAATAAATTTGATTGAATATATTACATAGCTAAAGTTTCGGAGTCACCTAGTGCAG,31800 fluorescence intensity (a.u.)

row,Sequence,binding signal
1,TTTGGGGCTGAGAGATGAATGGATAATGGCCGCGGAGTTGCGGAGTCACCTAGTGCAG,3770 fluorescence intensity (a.u.)
2,GTTCTGACAAAATTTTAGTATCCAACCAAACAGCCCCAATCGGAGTCACCTAGTGCAG,4090 fluorescence intensity (a.u.)
3,TTGTTGTTATTTAATAAATTAGGAGATCAAATATGTTATTCGGAGTCACCTAGTGCAG,3300 fluorescence intensity (a.u.)
4,TTAAAATTAAACTTTTGCAGTCTTTCTAATTTGCCTCCTCCGGAGTCACCTAGTGCAG,5220 fluorescence intensity (a.u.)
5,TCTGATTAGTACTAGATATGAGTAACACGCAGATAACATGCGGAGTCACCTAGTGCAG,44200 fluorescence intensity (a.u.)
6,CTGATGATCAAAATTGCAATCCTGAGTCCTGAACAATGTGCGGAGTCACCTAGTGCAG,14600 fluorescence intensity (a.u.)
7,TGTATGCATAATTTATAAATTTTCACTCTAACACCATGTCCGGAGTCACCTAGTGCAG,9330 fluorescence intensity (a.u.)
8,AAACTACATTAATTTACATTGATTTTAGGAAATGAGGATCCGGAGTCACCTAGTGCAG,23700 fluorescence intensity (a.u.)
9,AGAGCTGCTAATTAATTATTTCACATGGATGCATACTTATCGGAGTCACCTAGTGCAG,20500 fluorescence intensity (a.u.)
10,TAACAAACTATTCCTAATTAATAGATAAACTGCCATGCCGCGGAGTCACCTAGTGCAG,8390 fluorescence intensity (a.u.)
11,ACTTAATTTAAGTGGCTCCGACTTGACGTACGACTGATCTCGGAGTCACCTAGTGCAG,13200 fluorescence intensity (a.u.)
12,CCCAATTATCTGGATGAAACATGCATGCGCACAATCTAGACGGAGTCACCTAGTGCAG,3360 fluorescence intensity (a.u.)
13,CTATCTTAATCTCATCATCAATTCCCTCGTGTAAACTCCCCGGAGTCACCTAGTGCAG,3170 fluorescence intensity (a.u.)
14,GACTGACGACAAAATTTGTTACAGATATCCATATCTTGATCGGAGTCACCTAGTGCAG,5930 fluorescence intensity (a.u.)
15,TTCTATAAATCAATGACAAATTTATCTGGTTCAATCAAAGCGGAGTCACCTAGTGCAG,14100 fluorescence intensity (a.u.)
16,GGAAATATGTTAATTAAAATAATGCAACCCTAATCAGCAACGGAGTCACCTAGTGCAG,10500 fluorescence intensity (a.u.)
17,GCCATGTAATTGTTACCCACCCGTGTCCATTTGCAATTGACGGAGTCACCTAGTGCAG,9450 fluorescence intensity (a.u.)
18,TACAATTAATTAGCTCGACTAATTAATAACCAAGTGATGGCGGAGTCACCTAGTGCAG,37800 fluorescence intensity (a.u.)
19,TTATAATTGTAAATTTTACAAATTAGTCCTCACCTGTTCTCGGAGTCACCTAGTGCAG,53400 fluorescence intensity (a.u.)
20,AAATAATTTATAGGTAAAACTTTATATAAATGGTTTTAGTCGGAGTCACCTAGTGCAG,39400 fluorescence intensity (a.u.)
21,ACCTTCGACTATCAATAATCACCACTGCTCTAATCATTACCGGAGTCACCTAGTGCAG,3460 fluorescence intensity (a.u.)
